# Data published in publication PMC12136788.
# Some of the results follow.
# B1: chr6:132296306:132296407:-|3pUTR|ENSG00000079931|msi1|total|mutant (ssRNA)
# RNA: GGGAGUUCUACAGUCCGACGAUCAUGGGAAACACCGAAAUGGUAUGUAUUAAUAACUGAUCACCGGCUGAGGAGAAAAAAUGCCGCUGGCUGCAAACCCAGUGCUGUGAGGUGACUUAUAUGAGGUUCCAGAUCAAAGACAGGCAACAGAGGAUUGAGCAUCA
# B2: chr12:102417490:102417817:-|three_prime_utr|ENSG00000017427|control|control|control (ssRNA)
# RNA: GGGAGUUCUACAGUCCGACGAUCACAGAGGCAAGGAUGAUGAGAGAGGAGCAGACAGCAAGAAUGAAAAGCAGAAAAUACAAUAGAGGAAAUGAAGAAAAGUAGGCCUGCUGGAGCUAGAUGAUGAUGUGAUGGAAAUAGAAGCAACAGAGGAUUGAGCAUCA
# B3: ENSG00000065911:stop:overlap|stop_codon|ENSG00000065911|stop_codon|NA|stop_codon (ssRNA)
# RNA: GGGAGUUCUACAGUCCGACGAUCACAGCUGCUCCCUUCGCCUUCGCCCUUUCCACCUCGCGGCAGUUCGGGGAAUCUCUCCCUAGGUCAGGUUGGAGUGCAGUGCUGCAAUCACGGCUUACUGCAGCCUUGACCUCCUGGGCUCAACAGAGGAUUGAGCAUCA
# B4: chr16:74503563:74503676:-|CDS|ENSG00000090863|unk|FALSE|bound_elsewhere (ssRNA)
# RNA: GGGAGUUCUACAGUCCGACGAUCGGCAACAUCACUGAGUAUCAGUGUCACCAGUACAUUACCAAGAUGACGGCCAUCAUUUUUAGUGAUUACCGUUUAAUCUGUGGCUUCAUGGAUGACUGCAAAAAUGACAUCAACAUUCUGCAACAGAGGAUUGAGCAUCA
# B5: chr1:34868604:34869089:-|CDS|ENSG00000116544|control|control|control (ssRNA)
# RNA: GGGAGUUCUACAGUCCGACGAUCGCCCCCACCCCCGGCCCUGGGGCCGGCCGCCGUGACUCCUGGAUAGAGCGCGGUUCACGUAGCCUCCCCGACUCAGGCCGCGCAUCCCCCUGCCCACGCGACGGCGAGUGGUUCAUCAAGCAACAGAGGAUUGAGCAUCA
# B6: chr9:96387934:96388035:-|3pUTR|ENSG00000165244|msi1|total|mutant (ssRNA)
# RNA: GGGAGUUCUACAGUCCGACGAUCAAUAUUUUGUAAAUAUGGACUGCACAGUACAGGGCCGAAAACUACAUAUUGUGGGAAGCCCGAUUUUGCAAGUUUAAUGCAUUCAUUGGAAGCAGUUCUCACAGGAAGCACUUUCUGAAUCAACAGAGGAUUGAGCAUCA
# B7: chr20:11926050:11926151:+|3pUTR|ENSG00000132640|msi1|FALSE|unique (ssRNA)
# RNA: GGGAGUUCUACAGUCCGACGAUCAUGAAAUGGAAUGAAGGCUAAUAUGCUUGCUUUAUUUACUUUUGUAAUCUUGGAUUUUGUAGCUUUUAAAACUAGAAACCAUUGUUCUAACAAAGCAGGCAACUUUAUUCUAUAAACACACAACAGAGGAUUGAGCAUCA
# B8: chr8:65707876:65707977:+|CDS|ENSG00000066855|unk|FALSE|unique (ssRNA)
# RNA: GGGAGUUCUACAGUCCGACGAUCCCUGCUGCCCUCAUAGCAGAGGCUCUGAAAAAGAAAUUUGCUUAUCGGUAUCGAAGUGAUAGCCAAGAUGAAGUUGAAAAAGGAAUUCCAAAGUCUGAAUCAGAGGCCACCUCAGAGAGACAACAGAGGAUUGAGCAUCA
# B9: chr1:225495143:225495244:-|3pUTR|ENSG00000154380|msi1|total|mutant (ssRNA)
# RNA: GGGAGUUCUACAGUCCGACGAUCACAUUAUUAUGAUGGUUUUUGUGCUCUUGUACGUUGGAUGUCUUAAGCUGAGUACAGUUCCGGGGAUCCUUUCUAAUGACAGGAAGGCACUGCUUUCCUCAACACUGUGAUCUGACCUGUCAACAGAGGAUUGAGCAUCA
# B10: chr20:4700004:4700108:+|3pUTR|ENSG00000171867|msi1|FALSE|unique (ssRNA)
# RNA: GGGAGUUCUACAGUCCGACGAUCUCACCAUCUUUCUAAUCUUUUUCCAGCUUGAGGGAGGCGGUAUCCACCUGCAGCCCUUUUAGUGGUGGUGUCUCACUCUUUCUUCUCUCUUUGUCCCGGAUAGGCUAAUCAAUACCCUUGCAACAGAGGAUUGAGCAUCA
# B11: chr12:49763637:49763739:+|3pUTR|ENSG00000139644|msi1_unk|total|mutant (ssRNA)
# RNA: GGGAGUUCUACAGUCCGACGAUCAUGUGUAUCAAGGUACAGCAUCGCCGGGUUCCCCUAAACUUGCCCUGUUUUUGUUUUUUCCGUUUGUUAUCCCCUUACUGAGCGGCCUCUACCCGGUGGCUGUGAUUAAAUGUCCCAAGCCAACAGAGGAUUGAGCAUCA
# B12: chr7:5620113:5620210:-|3pUTR|ENSG00000011275|msi1_unk|total|mutant (ssRNA)
# RNA: GGGAGUUCUACAGUCCGACGAUCGUCACUUUGUAUAAAAACAAGAAACGAUCCGUUCAUUAAACUUUUUCUUUACCUUCUGGCCGUAAAAACCGAUAAAAUAAUUCCGUUUCAACUACUGUGUGUAAAAAGCCUGUAUCAUAUCAACAGAGGAUUGAGCAUCA
# B13: chr7:32869000:32869101:-|3pUTR|ENSG00000170852|msi1|FALSE|bound_elsewhere (ssRNA)
# RNA: GGGAGUUCUACAGUCCGACGAUCAAUUGAGAAACUUUAUGUGUAAUCAUGAGAGUAUAAGAAUCUGGAUUAUCUAACAUUGUUAGCCCUGUGUAUGUACAGUUCAAAAAGUUCAUUUAUAAAAGUAGUUUCCUGUUCCUAGUGCAACAGAGGAUUGAGCAUCA
# B14: chr1:17407970:17408071:-|3pUTR|ENSG00000179051|msi1|total|mutant (ssRNA)
# RNA: GGGAGUUCUACAGUCCGACGAUCGGGUACCGUUCUGCUGACCCAGCUCCCUUCCGUCACGUUUGCUUGGCUCUGGUACCAAACCGUUGGGAUUACCGAAGAGUCCCCUUCCUUGCGUGUCAGCACGGAUGCUGUGACUGCCACCAACAGAGGAUUGAGCAUCA
# B15: chr11:69651733:69651797:+|3pUTR|ENSG00000110092|msi1_unk|total|mutant (ssRNA)
# RNA: GGGAGUUCUACAGUCCGACGAUCAAAACAUUUUAAAAACACCGAAAAAUUCAGCAAACCAUUUUUAAAGCCGAAGAGGGUUUCCGGCCGAAAAACAUAUUCUUGUGCUUUUCCUGAUAAAGCACAGCUGCCGUGGGGUUCCCGCAACAGAGGAUUGAGCAUCA
# B16: ENSG00000198589:be:win_9701|3pUTR|ENSG00000198589|bound_else_gene|NA|bound_elsewhere_windowed (ssRNA)
# RNA: GGGAGUUCUACAGUCCGACGAUCCAAGGAUUUGGAAUGAACAAUUCAGUUUGACAGAAAAAGCUGAAUAAAAUGGCAUCUGUAAUUGAAUUGUUGGAAAUGCCUUUUUUGCUCCUAAAUUUUAAACAUCAUUAAUAAAAUAAUCAACAGAGGAUUGAGCAUCA
# B17: ENSG00000077232:stop:overlap|stop_codon|ENSG00000077232|stop_codon|NA|stop_codon (ssRNA)
# RNA: GGGAGUUCUACAGUCCGACGAUCUGUUGGUUAAUAUCUUUCAUCAGUUGUGGAAACCUGUCAGCUGGAUGGUCUUGUUAAUGUAGGAUGGAUGGACUGUGCCACCCAGGAUAACCUUUGUAAAAGCUUAGAUAUUACAACAAGCAACAGAGGAUUGAGCAUCA
# B18: chr9:20999508:21007036:-|three_prime_utr|ENSG00000188921|control|control|control (ssRNA)
# RNA: GGGAGUUCUACAGUCCGACGAUCAUACCUUGUAUUUGAUAAAAAUCCAUUACAUGAAAUAACUGCACAUACCCCCAAAACUCUAGACAUAACAGGCUAUGUUUUUCACACAUUGUAUUUUUAAGACAUAUAUAUUCUCCAUACCAACAGAGGAUUGAGCAUCA
# B19: chr13:52461607:52461862:+|CDS|ENSG00000136108|unk|total|mutant (ssRNA)
# RNA: GGGAGUUCUACAGUCCGACGAUCGUUACAAUCCGGAAAGGGCCUCAUGAAAAAGAACUAUUACAAUCAAAAACAGCUUUAUCCCGUGUCAAAACCAGUUCUUCUCAAGGUAUAAUAAGAAAUAAGACUCUAUCAAGAUCCAUACAACAGAGGAUUGAGCAUCA
# B20: ENSG00000074590:stop:overlap|stop_codon|ENSG00000074590|stop_codon|NA|stop_codon (ssRNA)
# RNA: GGGAGUUCUACAGUCCGACGAUCACAUGGAUGAUGUGACUCAGGUCUACAAGCAAGCGCUGGAGAUCUGCAGCAAGCUCAACUAGCAUUCCAGGGCGCCCAGGGGCGGGCGGGGGUACGAGGGAGGAAGGGGAGCAAGACUUGCAACAGAGGAUUGAGCAUCA
# B21: chr12:122341087:122341188:-|CDS|ENSG00000130779|unk|total|mutant (ssRNA)
# RNA: GGGAGUUCUACAGUCCGACGAUCAGAAUUUGCUGAACUAAAAACACAAACCGAGAAAAUGAGACCCGAUUACCAACACGAAACCGAAAAUUUGCAGAAUCAACAAGACUCUGAACGGGCUGCCCAUGCUAAAGAGAUGGAAGCCAACAGAGGAUUGAGCAUCA
# B22: chr5:72208839:72208948:+|3pUTR|ENSG00000131711|msi1_unk|FALSE|overlapping (ssRNA)
# RNA: GGGAGUUCUACAGUCCGACGAUCCUUGCCUCUCUUUAGUCACCUGUCACAGGAGGUUCCUGCUCAGUAAUGAUAUUGUGAGUUAGGAUAAUAACUUUUUUUUUUUGUGCUUCAGAUUUAGAAGAAAAGAUCCUGUUUCCAUUUCAACAGAGGAUUGAGCAUCA
# Molecular target: MSI1 full-length (mouse, UniProt Q61474 1-362)
# Assay: nsRBNS (natural sequence RNA bind-n-seq); RBNS binding buffer (assumed for nsRBNS): 25 mM Tris pH 7.5, 150 mM KCl, 3 mM MgCl2, 0.01% Triton X-100, 500 ug/ml BSA, 20 U/ml SUPERase-In, 4 C; UNK is unkempt and MSI1 is Musashi-1; names of the RNAs are library labels; protein concentration not given here; high values mean tight binding
# UniProt Q61474, sequence (Q61474 whole entry): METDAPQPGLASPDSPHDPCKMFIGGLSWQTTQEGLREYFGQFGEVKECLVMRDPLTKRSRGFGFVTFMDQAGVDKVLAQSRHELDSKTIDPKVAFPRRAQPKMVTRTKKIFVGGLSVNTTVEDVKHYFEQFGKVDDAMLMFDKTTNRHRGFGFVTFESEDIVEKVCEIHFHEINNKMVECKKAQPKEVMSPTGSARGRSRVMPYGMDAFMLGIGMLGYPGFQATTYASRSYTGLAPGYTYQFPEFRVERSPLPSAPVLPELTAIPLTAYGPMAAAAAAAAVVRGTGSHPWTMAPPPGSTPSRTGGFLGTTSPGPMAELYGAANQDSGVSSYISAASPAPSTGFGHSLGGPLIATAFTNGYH
row,Binder,binding signal
1,B1,0.413 enrichment R
2,B2,2.53 enrichment R
3,B3,0.471 enrichment R
4,B4,0.238 enrichment R
5,B5,0.554 enrichment R
6,B6,0.204 enrichment R
7,B7,1.07 enrichment R
8,B8,0.29 enrichment R
9,B9,0.294 enrichment R
10,B10,1.44 enrichment R
11,B11,0.481 enrichment R
12,B12,0.325 enrichment R
13,B13,2.31 enrichment R
14,B14,0.479 enrichment R
15,B15,0.474 enrichment R
16,B16,0.605 enrichment R
17,B17,1.23 enrichment R
18,B18,3.67 enrichment R
19,B19,1.26 enrichment R
20,B20,0.662 enrichment R
21,B21,0.402 enrichment R
22,B22,0.648 enrichment R
